Assay results from publication PMC3813556, “Probing the Dynamic Process of Encapsulation in Escherichia coli GroEL” (PLoS ONE, 2013).

Biological target: T1, GroEL D398A-RW (E. coli, UniProt P0A6F5, D398A | R231W)
T1 construct: GroEL, E. coli, D398A mutant (greatly diminished ATPase activity) with the R231W mutation; Made by Quikchange site directed mutagenesis
Experiment: FRET or BRET; stopped-flow intermolecular FRET from the apical domain tryptophan of the GroEL mutant to prebound acid-unfolded AEDANS-GroELwt (equimolar); decrease of FRET after addition of ATP and GroES
Conditions: both partners purified

B1: AEDANS-labelled, acid-unfolded wild type GroEL (natural protein)
chain: not shown
modifications: AEDANS label from IAEDANS, 0.2 to 0.5 label per GroELwt subunit; labelled residues not stated
notes: wild type GroEL, E. coli, used unfolded as a model substrate protein; Stood in the assay as an unfolded subunit, not as the oligomer; also called AEDANS-GroELwt; GroELwt; source: GroELwt labelled with IAEDANS, denatured in 20 mM glycine-HCl buffer, pH 2.0, for 1 h at 25°C
B1 was tested, and the “k of PhaseFRET2 (rate of release of the bound unfolded protein)” value was 0.18 ± 0.034 s⁻¹ and the “k of PhaseFRET (rate of release of the bound unfolded protein)” value was 1.8 ± 0.46 s⁻¹.
